Measurements: paper PMC4752459
Like-named read-outs stand apart in the source and are kept apart here. Results are given in words; binding and its absence hold for the method and conditions named. Binding seen in cells or lysates may run through a third protein. Some binding calls cover weakened binding; strength is not graded here. Blank lines part the entries; values can stand above or below the molecule they belong to.

Protein sequences, listed by entry. Tags and fused reporters are not part of them. Lines headed by an entry give the natural chain unless they say otherwise; changes in a name come on top.
UniProt P32458: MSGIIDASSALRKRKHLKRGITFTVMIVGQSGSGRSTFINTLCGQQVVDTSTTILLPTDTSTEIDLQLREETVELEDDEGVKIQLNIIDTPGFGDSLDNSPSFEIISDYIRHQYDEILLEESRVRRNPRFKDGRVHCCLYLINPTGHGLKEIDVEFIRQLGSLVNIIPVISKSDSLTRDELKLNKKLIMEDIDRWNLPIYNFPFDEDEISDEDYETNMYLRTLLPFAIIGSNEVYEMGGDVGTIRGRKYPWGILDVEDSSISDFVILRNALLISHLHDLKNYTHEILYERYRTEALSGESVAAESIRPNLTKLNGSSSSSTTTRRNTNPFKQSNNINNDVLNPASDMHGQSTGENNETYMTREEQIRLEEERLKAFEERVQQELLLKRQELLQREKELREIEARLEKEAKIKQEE
UniProt P32468: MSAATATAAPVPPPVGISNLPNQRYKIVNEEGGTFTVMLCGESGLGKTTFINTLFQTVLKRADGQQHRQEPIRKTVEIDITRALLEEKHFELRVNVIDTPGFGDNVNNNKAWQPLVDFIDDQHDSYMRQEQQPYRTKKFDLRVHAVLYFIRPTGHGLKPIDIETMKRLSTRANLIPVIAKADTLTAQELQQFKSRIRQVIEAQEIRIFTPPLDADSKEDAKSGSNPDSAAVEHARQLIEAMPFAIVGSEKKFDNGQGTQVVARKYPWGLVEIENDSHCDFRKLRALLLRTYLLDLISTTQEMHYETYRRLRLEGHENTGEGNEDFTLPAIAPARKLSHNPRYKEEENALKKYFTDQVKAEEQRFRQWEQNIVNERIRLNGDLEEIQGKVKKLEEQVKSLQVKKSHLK
UniProt P32457: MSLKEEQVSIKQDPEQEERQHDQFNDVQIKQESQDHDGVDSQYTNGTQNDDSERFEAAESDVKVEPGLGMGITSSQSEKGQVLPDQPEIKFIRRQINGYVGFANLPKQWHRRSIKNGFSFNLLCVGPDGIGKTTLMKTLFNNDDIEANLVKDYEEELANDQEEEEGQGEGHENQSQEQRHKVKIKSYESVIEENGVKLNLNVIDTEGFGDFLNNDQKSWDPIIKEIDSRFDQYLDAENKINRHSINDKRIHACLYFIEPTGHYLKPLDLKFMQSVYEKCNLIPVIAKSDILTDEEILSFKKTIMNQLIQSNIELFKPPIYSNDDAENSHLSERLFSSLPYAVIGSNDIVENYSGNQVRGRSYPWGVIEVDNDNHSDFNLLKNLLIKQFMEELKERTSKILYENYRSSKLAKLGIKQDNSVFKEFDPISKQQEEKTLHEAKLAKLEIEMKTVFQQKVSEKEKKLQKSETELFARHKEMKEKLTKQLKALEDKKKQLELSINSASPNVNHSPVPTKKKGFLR
UniProt P25342: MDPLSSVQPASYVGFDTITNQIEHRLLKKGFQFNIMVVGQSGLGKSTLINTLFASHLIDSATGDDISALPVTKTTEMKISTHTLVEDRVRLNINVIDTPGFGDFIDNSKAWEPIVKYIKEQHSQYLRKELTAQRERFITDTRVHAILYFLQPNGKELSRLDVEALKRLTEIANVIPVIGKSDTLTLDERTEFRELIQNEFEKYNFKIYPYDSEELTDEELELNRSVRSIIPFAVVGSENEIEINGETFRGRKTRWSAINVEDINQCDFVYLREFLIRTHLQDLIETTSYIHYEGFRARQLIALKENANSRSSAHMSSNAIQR
UniProt P25558: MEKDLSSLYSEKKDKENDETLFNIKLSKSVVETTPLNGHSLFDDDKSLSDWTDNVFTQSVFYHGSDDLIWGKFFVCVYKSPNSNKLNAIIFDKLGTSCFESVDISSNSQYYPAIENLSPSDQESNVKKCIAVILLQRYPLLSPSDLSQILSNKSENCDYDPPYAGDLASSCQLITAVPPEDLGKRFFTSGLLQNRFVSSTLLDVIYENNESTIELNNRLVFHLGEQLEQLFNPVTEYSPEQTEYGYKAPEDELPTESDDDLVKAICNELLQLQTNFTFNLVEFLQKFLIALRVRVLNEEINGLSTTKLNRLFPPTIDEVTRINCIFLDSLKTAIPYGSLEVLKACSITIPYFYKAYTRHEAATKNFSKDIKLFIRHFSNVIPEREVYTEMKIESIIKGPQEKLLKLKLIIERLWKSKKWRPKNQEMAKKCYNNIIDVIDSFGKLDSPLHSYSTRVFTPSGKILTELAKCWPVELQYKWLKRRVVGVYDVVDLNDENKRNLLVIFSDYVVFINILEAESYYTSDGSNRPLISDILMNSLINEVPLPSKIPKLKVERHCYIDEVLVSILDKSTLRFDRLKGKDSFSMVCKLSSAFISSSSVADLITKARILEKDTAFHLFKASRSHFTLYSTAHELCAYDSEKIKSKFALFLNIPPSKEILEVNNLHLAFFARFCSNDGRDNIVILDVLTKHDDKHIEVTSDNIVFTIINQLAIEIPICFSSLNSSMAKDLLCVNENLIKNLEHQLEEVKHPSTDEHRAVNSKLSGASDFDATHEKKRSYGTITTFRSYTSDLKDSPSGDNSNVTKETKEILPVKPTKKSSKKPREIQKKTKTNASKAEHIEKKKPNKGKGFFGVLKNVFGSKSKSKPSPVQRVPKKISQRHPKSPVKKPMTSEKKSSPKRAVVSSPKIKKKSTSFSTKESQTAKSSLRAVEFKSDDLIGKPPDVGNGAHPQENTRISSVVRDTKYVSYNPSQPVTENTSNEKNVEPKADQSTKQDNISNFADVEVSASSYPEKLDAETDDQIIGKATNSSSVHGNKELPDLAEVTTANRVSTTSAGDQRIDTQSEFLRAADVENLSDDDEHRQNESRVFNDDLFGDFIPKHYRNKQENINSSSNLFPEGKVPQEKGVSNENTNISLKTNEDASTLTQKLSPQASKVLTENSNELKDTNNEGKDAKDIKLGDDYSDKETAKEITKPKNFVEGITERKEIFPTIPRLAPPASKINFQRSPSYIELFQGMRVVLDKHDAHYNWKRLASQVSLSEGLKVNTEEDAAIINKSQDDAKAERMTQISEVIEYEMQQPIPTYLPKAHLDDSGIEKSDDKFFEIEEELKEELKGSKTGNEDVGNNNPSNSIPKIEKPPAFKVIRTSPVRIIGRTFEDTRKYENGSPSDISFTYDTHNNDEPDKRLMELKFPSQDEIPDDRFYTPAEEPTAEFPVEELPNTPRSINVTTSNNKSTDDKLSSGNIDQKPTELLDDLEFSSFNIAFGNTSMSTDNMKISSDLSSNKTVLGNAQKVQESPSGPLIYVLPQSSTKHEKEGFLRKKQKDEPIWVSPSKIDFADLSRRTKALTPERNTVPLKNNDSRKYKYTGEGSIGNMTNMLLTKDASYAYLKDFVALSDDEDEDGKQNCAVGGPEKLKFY

Key:
[1] = biological target: T1, recombinant SNAP-tagged yeast septin rods (S. cerevisiae) (UniProt P32458+P32468+P32457+P25342); experiment: pull-down; SNAP-tagged septin rods coupled to benzylguanine-Sepharose, blocked with BSA, incubated with yeast extract 2 h at 8°C; 50 mM Tris pH 8.0, 300 mM NaCl; 6his-SNAP beads as control; Western blot with anti-protein A or anti-GFP; only the target purified
[2] = biological target: T2, Shs1-CCG (S. cerevisiae) (UniProt Q07657); experiment: split reporter; time resolved SPLIFF after fusion of Nub-fusion and Shs1-CCG expressing cells; imaging every 3 min, 100 μM Cu2+, 30°C
T2 sequence: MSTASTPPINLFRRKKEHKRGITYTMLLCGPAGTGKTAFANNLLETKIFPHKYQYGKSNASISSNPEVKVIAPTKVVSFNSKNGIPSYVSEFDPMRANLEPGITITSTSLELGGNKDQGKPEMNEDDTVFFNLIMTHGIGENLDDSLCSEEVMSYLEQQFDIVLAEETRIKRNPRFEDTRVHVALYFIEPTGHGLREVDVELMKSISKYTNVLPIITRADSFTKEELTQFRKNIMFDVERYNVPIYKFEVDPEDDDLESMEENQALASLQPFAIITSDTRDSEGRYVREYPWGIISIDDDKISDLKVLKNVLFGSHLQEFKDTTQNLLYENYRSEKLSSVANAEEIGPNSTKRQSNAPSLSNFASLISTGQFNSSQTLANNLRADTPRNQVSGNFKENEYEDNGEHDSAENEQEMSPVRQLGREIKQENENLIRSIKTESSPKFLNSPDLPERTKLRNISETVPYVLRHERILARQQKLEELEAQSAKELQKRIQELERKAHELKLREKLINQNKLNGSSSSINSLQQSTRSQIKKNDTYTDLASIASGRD

[3] = biological target: T2, Shs1-CCG (S. cerevisiae); experiment: split reporter; steady-state SPLIFF (split-ubiquitin, mCherry-Cub-GFP): diploid cells with Shs1-CCG and a Nub fusion, 100 μM Cu2+, GFP/mCherry ratio at the bud neck; strong > 70%, weak > 30%, below 30% CCG to CC conversion non-interacting
[4] = biological target: T1, recombinant SNAP-tagged yeast septin rods (S. cerevisiae); experiment: pull-down; SNAP-tagged septin rods coupled to benzylguanine-Sepharose, blocked with BSA, incubated with yeast extract 2 h at 8°C; 50 mM Tris pH 8.0, 300 mM NaCl; 6his-SNAP beads as control; Western blot with anti-protein A or anti-GFP; only the target purified; remark: listed apart in the source

binding [1]: binds weakly
Molecule: Bud3-TAP (from UniProt P25558 1-1636)

binding [2]: binds
binding [3]: binds
B1: Nub-Bud4 (protein, UniProt P47136 1-1447)
chain: MHDAESTVDSLLKEIDNEMEQTKSNITQNGSEDTPHNWKLPLQEIGDDTMEMLVKHNTRSNATENSRGRSPSKMSTISNESLNLGLLRVNSELEESPAAVHQERIKNSVANGALGHANSPKVLNNLKNMAQDIDKLARDEEKPVKLSSSPLKFTLKSTQPLLSYPESPIHRSSIEIETNYDDEDEEEEDAYTCLTQSPQILHSPSRIPITNAVSINKLNLDFTLNPNESDKSLVSDTSVDSTGRELDTKTIPELPFCMSSTPEMTPVDEKCNLPSKLLNTSNNSHSDSRSPTASVEDLNISTNLPGADSSQNNPVTTDADALIENDVVRDLQQNMEHIDDAFDEKKVLDEGCSNEPVTFLGENDTRSIVYSNKGTNANVQEFSQEDSLAHSEPKFKDLNATSDDVWNEDKETDANISTSTKSEESYIADYKVTRQEDWDTKKLHQESEHANEQPAIIPQKDSSEETFTELNNESEFQRNFKDGEEYRIVQHEESLYGQRTKSPEENIINGSEIGVDHGEAAEVNEPLAKTSAEEHDLSSSCEDQSVSEARNKDRIEEKEVETKDENIETEKDESEYHKVEENEEPEHVPLLPPLPRWEEIQFNEPFIDENDTSNDSIDLTRSMKPSDYISIWHIQEEEIKSNSPESIANSQFSQQSSITTASTVDSKKDNGSTSFKFKPRIVSRSRIYNPKSRVSSLNYYDNEDYILSNSEWNALDPMRRNTLISKRIQDNIRTQKGHAPLIRPSIMKLNGEDSGFQNHFLEVEQPQEHENIPLSTHLSEQDITTNVGLDEQKLPTNTQDEAEISIREIESAGDITFNRGDLLSLSFDEELGQDFANFLDALDHDSTSFNHGPDDSSSFQRDSSKKSFNSLWESSYELKPPPSIRKQPIAPDVLQKLLESDTKDDADLEKIREERITEPRTGLGIGMLKTPVKDVSIALAASIKGYEASFSDTDSRPEGMNNSDAITLNMFDDFEEDKMTPSTPVRSISPIKRHVSSPFKVVKAGNKQENNEINIKAEEEIEPMTQQETDGLKQDIPPLLAQTKDNVEAKEETITQLEEPQDVEQEFPDMGTLYLSIKAISTLALYGTKSHRATYAIVFDNGENVVQTPWESLPYDGNIRINKEFELPIDFKGKAETSSASSERDSYKKCVITLKCKYEKPRHELVEIVDKVPVGKSFFGKTKYKFEKKYVQKKPKQDEWDYLFAQDGSFARCEIEINEEFLKNVAFNTSHMHYNMINKWSRIADKIHGSKRLYELPRKAPHKVASLDVEACFLERTSAFEQFPKQFSLVNKIVSKYKLQQNIYKEGYLLQDGGDLKGKIENRFFKLHGSQLSGYHEISRKAKIDINLLKVTKVLRNEDIQADNGGQRNFTDWVLFNECFQLVFDDGERITFNAECSNEEKSDWYNKLQEVVELNVFHQPWVKKYCEKLAEEEKTRTTGHNLKQDFN

binding [4]: no binding
B2: Rlp7-TAP (protein, UniProt P40693 1-322)
chain: MSSTQDSKAQTLNSNPEILLRKRRNADRTRIERQELAKKKREEQIKKKRSNKNKFVRAESIVAKTLATSREKERIKRVSILEDKKAKNETQHIASGKDFILKITEKANGAEENSVDLEETEEEEDDGLIREKTTYDGKPALLFIVRVRGPLAVNIPNKAFKILSLLRLVETNTGVFVKLTKNVYPLLKVIAPYVVIGKPSLSSIRSLIQKRGRIIYKGENEAEPHEIVLNDNNIVEEQLGDHGIICVEDIIHEIATMGESFSVCNFFLQPFKLNREVSGFGSLNRLRKIKQREAESRTRQFSNAATAPVIEVDIDSLLAKLN
